Where a chain is given by its changes, count along the chain named.
T1: Human 5T4 (produced in-house) (human, UniProt Q13641 32-355, limits assumed)
T1 sequence (looked up): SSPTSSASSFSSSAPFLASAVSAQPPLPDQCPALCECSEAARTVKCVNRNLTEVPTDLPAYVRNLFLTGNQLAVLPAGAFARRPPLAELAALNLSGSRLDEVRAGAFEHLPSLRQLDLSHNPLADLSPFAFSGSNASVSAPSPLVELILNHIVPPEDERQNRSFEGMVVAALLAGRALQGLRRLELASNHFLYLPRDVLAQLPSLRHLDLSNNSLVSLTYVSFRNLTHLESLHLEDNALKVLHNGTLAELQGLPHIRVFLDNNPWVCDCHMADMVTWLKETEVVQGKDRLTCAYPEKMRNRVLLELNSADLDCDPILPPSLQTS

B1: 1618LO11-1210LO2 (bispecific antibody, human IgG1, kappa)
heavy: EVQLLESGGGLVQPGGSLRLSCAASGFTFDYGSMYWVRQAPGKGLEWVSSISSGSGSTYYADSVKGRFTISRDNSKNTLYLQMNSLRAEDTAVYYCARSSYYGSYYSIDYWGQGTLVTVSS[no letters for human IgG1 constant region with changes]GGGGSGGGGSEVQLLESGGGLVQPGGSLRLSCAASGFDFDSYAMSWVRQAPGKGLEWVSAISGRGGSTYYADSVKGRFTISRDNSKNTLYLQMNSLRAEDTAVYYCARYYGGYYSAWMDYWGQGTLVTVSSGGGGSGGGGSGGGGSDIQMTQSPSSLSASVGDRVTITCRASQSIRSALNWYQQKPGKAPKLLIYAASSLQSGVPSRFSGSGSGTDFTLTISSLQPEDFATYYCQQTYGYLHTFGQGTKLEIK
light: DIQMTQSPSSLSASVGDRVTITCRASQSISSYLNWYQQKPGKAPKLLIYAASSLHSGVPSRFSGSGSGTDFTLTISSLQPEDFATYYCQQYYDNLPTFGQGTKLEIKRTVAAPSVFIFPPSDEQLKSGTASVVCLLNNFYPREAKVQWKVDNALQSGNSQESVTEQDSKDSTYSLSSTLTLSKADYEKHKVYACEVTHQGLSSPVTKSFNRGEC
B2: 1618LO3-1210LO2 (bispecific antibody, human IgG1, kappa)
heavy: EVQLLESGGGLVQPGGSLRLSCAASGFTFSYGSMYWVRQAPGKGLEWVSSISSGSGSTHYADSVKGRFTISRDNSKNTLYLQMNSLRAEDTAVYYCARSSYYGSYYSIDYWGQGTLVTVSS[no letters for human IgG1 constant region with changes]GGGGSGGGGSEVQLLESGGGLVQPGGSLRLSCAASGFDFDSYAMSWVRQAPGKGLEWVSAISGRGGSTYYADSVKGRFTISRDNSKNTLYLQMNSLRAEDTAVYYCARYYGGYYSAWMDYWGQGTLVTVSSGGGGSGGGGSGGGGSDIQMTQSPSSLSASVGDRVTITCRASQSIRSALNWYQQKPGKAPKLLIYAASSLQSGVPSRFSGSGSGTDFTLTISSLQPEDFATYYCQQTYGYLHTFGQGTKLEIK
light: B1 light with S30R, S31Q, A50G
B3: 1618LO11-1210 (bispecific antibody, human IgG1, kappa)
heavy: EVQLLESGGGLVQPGGSLRLSCAASGFTFDYGSMYWVRQAPGKGLEWVSSISSGSGSTYYADSVKGRFTISRDNSKNTLYLQMNSLRAEDTAVYYCARSSYYGSYYSIDYWGQGTLVTVSS[no letters for human IgG1 constant region with changes]GGGGSGGGGS[no letters for about 100 residues]YYGGYYSAWMDYWGQGTLVTVSSGGGGSGGGGSGGGGSDIQMTQSPSSLSASVGDRVTITCRASQSISSYLNWYQQKPGKAPKLLIYAASSLQSGVPSRFSGSGSGTDFTLTISSLQPEDFATYYCQQTYGYLHTFGQGTKLEIK
light: B1 light
B4: 1618LO3-1210LO1 (bispecific antibody, human IgG1, kappa)
heavy: EVQLLESGGGLVQPGGSLRLSCAASGFTFSYGSMYWVRQAPGKGLEWVSSISSGSGSTHYADSVKGRFTISRDNSKNTLYLQMNSLRAEDTAVYYCARSSYYGSYYSIDYWGQGTLVTVSS[no letters for human IgG1 constant region with changes]GGGGSGGGGSEVQLLESGGGLVQPGGSLRLSCAASGFDFESYAMSWVRQAPGKGLEWVSAISGSGGSTYYADSVKGRFTISRDNSKNTLYLQMNSLRAEDTAVYYCARYYGGYYSAWMDYWGQGTLVTVSSGGGGSGGGGSGGGGSDIQMTQSPSSLSASVGDRVTITCRASQSIRSALNWYQQKPGKAPKLLIYAASSLQSGVPSRFSGSGSGTDFTLTISSLQPEDFATYYCQQTYGYLHTFGQGTKLEIK
light: B1 light with S30R, S31Q, A50G
B5: 1618-1210LO7 (bispecific antibody, human IgG1, kappa)
heavy: EVQLLESGGGLVQPGGSLRLSCAASGFTFSYGSMYWVRQAPGKGLEWVSSISSGSGSTYYADSVKGRFTISRDNSKNTLYLQMNSLRAEDTAVYYCARSSYYGSYYSIDYWGQGTLVTVSS[no letters for human IgG1 constant region with changes]GGGGSGGGGSEVQLLESGGGLVQPGGSLRLSCAASGFDFDSYAMSWVRQAPGKGLEWVSAISGSGGSTYYADSVKGRFTISRDNSKNTLYLQMNSLRAEDTAVYYCARYYGGYYSAWMDYWGQGTLVTVSSGGGGSGGGGSGGGGSDIQMTQSPSSLSASVGDRVTITCRASQSISSALNWYQQKPGKAPKLLIYAASSLHSGVPSRFSGSGSGTDFTLTISSLQPEDFATYYCQQTYGYLHTFGQGTKLEIK
light: B1 light with H55Q
B6: 1618-1210LO8 (bispecific antibody, human IgG1, kappa)
heavy: EVQLLESGGGLVQPGGSLRLSCAASGFTFSYGSMYWVRQAPGKGLEWVSSISSGSGSTYYADSVKGRFTISRDNSKNTLYLQMNSLRAEDTAVYYCARSSYYGSYYSIDYWGQGTLVTVSS[no letters for human IgG1 constant region with changes]GGGGSGGGGSEVQLLESGGGLVQPGGSLRLSCAASGFDFESYAMSWVRQAPGKGLEWVSAISGSGGSTYYADSVKGRFTISRDNSKNTLYLQMNSLRAEDTAVYYCARYYGGYYSAWMDYWGQGTLVTVSSGGGGSGGGGSGGGGSDIQMTQSPSSLSASVGDRVTITCRASQSIHQALNWYQQKPGKAPKLLIYGASSLQSGVPSRFSGSGSGTDFTLTISSLQPEDFATYYCQQTYGYLHTFGQGTKLEIK
light: B1 light with H55Q
B7: 1618-1210LO9 (bispecific antibody, human IgG1, kappa)
heavy: EVQLLESGGGLVQPGGSLRLSCAASGFTFSYGSMYWVRQAPGKGLEWVSSISSGSGSTYYADSVKGRFTISRDNSKNTLYLQMNSLRAEDTAVYYCARSSYYGSYYSIDYWGQGTLVTVSS[no letters for human IgG1 constant region with changes]GGGGSGGGGSEVQLLESGGGLVQPGGSLRLSCAASGFDFDSYAMSWVRQAPGKGLEWVSAISGSGGSTYYADSVKGRFTISRDNSKNTLYLQMNSLRAEDTAVYYCARYYGGYYSAWMDYWGQGTLVTVSSGGGGSGGGGSGGGGSDIQMTQSPSSLSASVGDRVTITCRASQSIHQALNWYQQKPGKAPKLLIYAASSLHSGVPSRFSGSGSGTDFTLTISSLQPEDFATYYCQQTYGYLHTFGQGTKLEIK
light: B1 light with H55Q
B8: 1618-1210LO6 (bispecific antibody, human IgG1, kappa)
heavy: EVQLLESGGGLVQPGGSLRLSCAASGFTFSYGSMYWVRQAPGKGLEWVSSISSGSGSTYYADSVKGRFTISRDNSKNTLYLQMNSLRAEDTAVYYCARSSYYGSYYSIDYWGQGTLVTVSS[no letters for human IgG1 constant region with changes]GGGGSGGGGSEVQLLESGGGLVQPGGSLRLSCAASGFTFDSYAMSWVRQAPGKGLEWVSAISGSGGSTYYADSVKGRFTISRDNSKNTLYLQMNSLRAEDTAVYYCARYYGGYYSAWMDYWGQGTLVTVSSGGGGSGGGGSGGGGSDIQMTQSPSSLSASVGDRVTITCRASQSIRSALNWYQQKPGKAPKLLIYAASSLHSGVPSRFSGSGSGTDFTLTISSLQPEDFATYYCQQTYGYLHTFGQGTKLEIK
light: B1 light with H55Q

Target: T2, CD137-bio (Ancell #502-030) (human, UniProt Q07011 24-186, biotinylated)
T2 construct: detection reagent of the dual ELISA
T2 sequence (Q07011 24-186 limits assumed): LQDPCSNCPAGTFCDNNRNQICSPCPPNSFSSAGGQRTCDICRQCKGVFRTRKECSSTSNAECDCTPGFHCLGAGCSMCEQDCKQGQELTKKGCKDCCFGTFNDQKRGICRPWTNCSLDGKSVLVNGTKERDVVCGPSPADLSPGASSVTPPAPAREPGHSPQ
Assay: dual ELISA: coated 5T4-Fc, detection with CD137-bio
Experimental: Bispecific binding to both targets, CD137 and 5T4, was evaluated using a standard ELISA protocol. Plates (#655074, Greiner Bio-One GmbH, Germany) were pre-coated with 0.5 μg/ml 5T4-Fc (obtained from Professor Peter Stern, University of Manchester) overnight. CD137-5T4 bsAb were diluted from 8 to 2×10⁻³ μg/ml in 1:4 dilutions and added in duplicates of 50 μl to each well. CD137-bio (Ancell #502-030) was used as detection antibody at 0.5 μg/ml and the binding was detected with Streptavidin-HRP (Pierce #21126). The ELISA was developed with SuperSignal ELISA PICO Chemiluminescent substrate (Thermo Scientific Pierce, Rockford, Ill. USA) during 2-10 minutes and read in an automated microplate based multi-detection reader (FLUOstar OPTIMA, Netherlands).

binding result | Binder
binds | B1
binds | B2
binds | B3
binds | B4

Target: T1, Human 5T4 (produced in-house)
Assay: BLI Octet, bsAb on anti-Fab-CH1 tips, 5T4 as analyte

Kd [nM] | koff [s⁻¹] | kon [M⁻¹ s⁻¹] | Binder
0.495 | 8.29e-05 | 168000 | B5
0.498 | 8.83e-05 | 177000 | B6
0.534 | 0.000125 | 235000 | B7
0.469 | 0.000106 | 227000 | B8

— US20190169308A1 (ALLIGATOR BIOSCIENCE, published 2019)
